In US20190062448A1, “ANTI-CD39 ANTIBODIES, COMPOSITIONS COMPRISING ANTI-CD39 ANTIBODIES AND METHODS OF USING ANTI-CD39 ANTIBODIES” (Tizona Therapeutics, priority 2017, published 2019):

T1: human-mouse CD39 chimeras (Homo sapiens, UniProt P49961, D150A/E143Q/E153S/L144S/N158S/R147E/R154T/S157K/V151A)
T1 construct: expressed in transfected cells; host or cells: CHO cells
T1 sequence (P49961 1-510 E143Q/L144S/R147E/D150A/V151A/E153S/R154T/S157K/N158S): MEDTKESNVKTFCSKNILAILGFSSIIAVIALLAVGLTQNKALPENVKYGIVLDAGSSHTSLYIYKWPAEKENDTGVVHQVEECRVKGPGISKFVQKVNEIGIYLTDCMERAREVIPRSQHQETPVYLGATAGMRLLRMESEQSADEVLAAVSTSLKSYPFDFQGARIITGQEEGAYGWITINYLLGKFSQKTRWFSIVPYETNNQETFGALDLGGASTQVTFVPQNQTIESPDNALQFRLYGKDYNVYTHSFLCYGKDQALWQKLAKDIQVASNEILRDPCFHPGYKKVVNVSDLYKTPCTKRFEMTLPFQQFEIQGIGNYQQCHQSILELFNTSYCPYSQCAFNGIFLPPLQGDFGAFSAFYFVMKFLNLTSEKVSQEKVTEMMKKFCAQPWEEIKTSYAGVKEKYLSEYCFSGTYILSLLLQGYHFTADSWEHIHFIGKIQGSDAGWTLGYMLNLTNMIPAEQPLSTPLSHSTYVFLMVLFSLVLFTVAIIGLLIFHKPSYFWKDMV

T2: human-mouse CD39 chimeras (Homo sapiens, UniProt P49961, E276G/I277V/N275G)
T2 construct: expressed in transfected cells; host or cells: CHO cells
T2 sequence (P49961 1-510 N275G/E276G/I277V): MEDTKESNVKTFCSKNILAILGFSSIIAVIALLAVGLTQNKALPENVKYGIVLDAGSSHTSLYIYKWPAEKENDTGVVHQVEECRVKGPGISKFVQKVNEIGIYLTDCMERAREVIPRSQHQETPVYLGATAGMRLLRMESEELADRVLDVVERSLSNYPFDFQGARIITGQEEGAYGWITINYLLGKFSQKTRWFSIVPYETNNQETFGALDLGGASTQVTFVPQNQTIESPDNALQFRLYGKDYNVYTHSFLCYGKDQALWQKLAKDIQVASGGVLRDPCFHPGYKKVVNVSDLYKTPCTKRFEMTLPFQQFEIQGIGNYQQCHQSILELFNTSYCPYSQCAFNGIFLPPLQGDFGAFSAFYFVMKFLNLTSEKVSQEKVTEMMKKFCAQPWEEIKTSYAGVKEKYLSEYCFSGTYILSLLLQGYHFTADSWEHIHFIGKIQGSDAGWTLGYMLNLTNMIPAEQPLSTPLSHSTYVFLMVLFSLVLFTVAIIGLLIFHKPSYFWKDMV

T3: hCD39-ECD (Homo sapiens, UniProt P49961)
T3 sequence (P49961 38-478 limits assumed): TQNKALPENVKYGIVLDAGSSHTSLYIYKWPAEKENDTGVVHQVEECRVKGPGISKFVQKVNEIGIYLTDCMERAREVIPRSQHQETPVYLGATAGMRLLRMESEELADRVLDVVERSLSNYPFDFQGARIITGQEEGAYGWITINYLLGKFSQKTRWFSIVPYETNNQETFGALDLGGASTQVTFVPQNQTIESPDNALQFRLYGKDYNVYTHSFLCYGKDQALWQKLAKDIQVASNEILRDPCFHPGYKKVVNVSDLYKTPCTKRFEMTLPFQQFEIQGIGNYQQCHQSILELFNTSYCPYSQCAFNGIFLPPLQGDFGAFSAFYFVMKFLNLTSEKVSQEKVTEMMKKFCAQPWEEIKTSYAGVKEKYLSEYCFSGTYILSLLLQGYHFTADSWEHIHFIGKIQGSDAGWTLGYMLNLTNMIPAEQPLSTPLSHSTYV


Legend:
[1] = target: T1, human-mouse CD39 chimeras; test: Binding to human-mouse CD39 chimeras and point mutants expressed in CHO cells (FACS); details: 15 μg/ml antibody
Procedure: (§1) Chimeras were generated by replacing human CD39 with mouse CD39 sequence in mammalian expression vectors. The chimeras were expressed in CHO cells and the ability of anti-human CD39 antibodies to bind the chimeras tested via FACS. In brief, cells were washed and blocked in FACS buffer (PBS/2% FBS) for 30 min on ice. They were then incubated with 15 μg/ml anti-human CD39 antibodies diluted in FACS buffer×1 h on ice. After 2 washes, cells were incubated with fluorescently labeled anti-human Fc antibodies, anti-mouse Fc antibodies, or anti-mCD39 antibody (R&D Systems 495826) diluted in FACS buffer per manufacturers' instructions×30 min on ice. After 2 washes, cells were resuspended in FACS buffer and analyzed on BD Fortessa. Data was processed with FlowJo. Positive binding was scored as “yes” and lack of binding was scored as “NO” and examples of FACS plots used to generate this table are in FIGS. 14.F and 14.G.
(§2) Chimeras were generated by mutagenesis of Chimera #2 or WT hCD39 expression vectors. Residues for mutagenesis were chosen based on divergence between human and mouse CD39. The chimeras were expressed in CHO cells and the ability of anti-human CD39 antibodies to bind the chimeras tested via FACS, as described in FIG. 14E. Table 2. Positive binding was scored as “Yes” and lack of binding was scored as “No” and examples of FACS plots used to generate this table are in FIGS. 14.F and 14.G.

[2] = target: T2, human-mouse CD39 chimeras; test: as above; details: 15 μg/ml antibody
Procedure: as §1, §2

hCD39-ECD = target: T3, hCD39-ECD; test: Epitope binning / competition for hCD39-ECD binding by Bio-Layer Interferometry; details: A1 immobilized, ECD captured, then competitor antibody
Description: A1 antibody was immobilized onto an Anti-Mouse IgG Fc Capture (AMC) biosensor (ForteBio). Association of hCD39-ECD was then monitored for 180 seconds via Bio-Layer Interferometry (BLI) using the Octet system (ForteBio), at which point the biosensor was dipped into competitor antibody and monitored for another 180 seconds.
The methods are the same as set forth above except that instead of A1, the representative antibody was immobilized using anti-human IgG Fc Capture (AHC) biosensor.
Also, an 18 hour incubation was used with the antibody or isotype control. Finally, an additional 30 second baseline dip in buffer between antigen capture and dipping into a second competitor antibody for 300 seconds was used.

Molecule	binding to Chimera #2 (human E143-N158 replaced by mouse sequence) [1]	binding to Chimera #4 [2]	competition with antibody A1 for binding to hCD39 ECD (hCD39-ECD)
31901: inhibitory anti-CD39 antibody, contacts E143-N158 incl. E153, R154; sensitive to N99 (antibody, Synthetic HC, 31901; Synthetic LC, 31901, E153, R154; sensitive to N99) heavy: QVQLVQSGAEVKKPGSSVKVSCKASGGTFSSLPISWVRQAPGQGLEWMGGIGFGTANYAQKFQGRVTITADESTSTAYMELSSLRSEDTAVYYCARGGAKYAGRYGMDVWGQGTTVTVSSASTKGPSVFPLAPCSRSTSESTAALGCLVKDYFPEPVTVSWNSGALTSGVHTFPAVLQSSGLYSLSSVVTVPSSSLGTKTYTCNVDHKPSNTKVDKRV[human IgG4 Fc with S228P (EU numbers) left out here] light: GIVMTQSPDSLAVSLGERATINCKSSQSVLFSSNNKNYLAWYQQKPGQPPKLLIYWASTRASGVPDRFSGSGSGTDFTLTISSLQAEDVAVYYCQQYYLYPLTFGGGTKVEIKRTVAAPSVFIFPPSDEQLKSGTASVVCLLNNFYPREAKVQWKVDNALQSGNSQESVTEQDSKDSTYSLSSTLTLSKADYEKHKVYACEVTHQGLSSPVTKSFNRGEC	able to bind all chimeras but Chimera #2; also recorded: inability to recognize Chimera #2	able to bind all chimeras but Chimera #2	
31905: inhibitory anti-CD39 antibody, contacts E143-N158 incl. E153, R154; sensitive to N99 (antibody, Synthetic HC, 31905; Synthetic LC, 31905, E153, R154; sensitive to N99) heavy: QVQLVQSGAEVKKPGSSVKVSCKASGGTFPSNAISWVRQAPGQGLEWMGGIGFGTANYAQKFQGRVTITADESTSTAYMELSSLRSEDTAVYYCARGGAKYARTYGMDVWGQGTTVTVSSASTKGPSVFPLAPCSRSTSESTAALGCLVKDYFPEPVTVSWNSGALTSGVHTFPAVLQSSGLYSLSSVVTVPSSSLGTKTYTCNVDHKPSNTKVDKRV[human IgG4 Fc with S228P (EU numbers) left out here] light: DIVMTQSPDSLAVSLGERATINCKSSKSVLYSNNNKNYLAWYQQKPGQPPKLLIYWASTRQSGVPDRFSGSGSGTDFTLTISSLQAEDVAVYYCQQYLLYPLTFGGGTKVEIKRTVAAPSVFIFPPSDEQLKSGTASVVCLLNNFYPREAKVQWKVDNALQSGNSQESVTEQDSKDSTYSLSSTLTLSKADYEKHKVYACEVTHQGLSSPVTKSFNRGEC	able to bind all chimeras but Chimera #2; also recorded: inability to recognize Chimera #2	able to bind all chimeras but Chimera #2	
31873: inhibitory anti-CD39 antibody, contacts E143-N158 incl. E153, R154; sensitive to N99 (antibody, Synthetic HC, 31873; Synthetic LC, 31873, E153, R154; sensitive to N99) heavy: QVQLVQSGAEVKKPGSSVKVSCKASGGTFSKYGISWVRQAPGQGLEWMGSIIPEFGIANYAQKFQGRVTITADESTSTAYMELSSLRSEDTAVYYCARESGGYRDHRLGVWGQGTMVTVSSASTKGPSVFPLAPCSRSTSESTAALGCLVKDYFPEPVTVSWNSGALTSGVHTFPAVLQSSGLYSLSSVVTVPSSSLGTKTYTCNVDHKPSNTKVDKRV[human IgG4 Fc with S228P (EU numbers) left out here] light: EIVMTQSPATLSVSPGERATLSCRASQSVGSNLAWYQQKPGQAPRLLIYGASTRASGIPARFSGSGSGTEFTLTISSLQSEDFAVYYCQQYLLWPLTFGGGTKVEIKRTVAAPSVFIFPPSDEQLKSGTASVVCLLNNFYPREAKVQWKVDNALQSGNSQESVTEQDSKDSTYSLSSTLTLSKADYEKHKVYACEVTHQGLSSPVTKSFNRGEC	able to bind all chimeras but Chimera #2; also recorded: inability to recognize Chimera #2	able to bind all chimeras but Chimera #2	
38347: inhibitory antibody as printed in b528, b532, b535; probably misprint of 28347 (antibody, V domains shown) VH: QVQLVQSGAEVKKPGSSVKVSCKASGGTFSSLAISWVRQAPGQGLEWMGGIIPIFGTANYAQKFQGRVTITADESTNTAYMELSSLRSEDTAVYYCARGGAKYASTYGMDVWGQGTTVTVSS VL: DIVMTQSPDSLAVSLGERATINCKSSQSVLFSSNNKNYLAWYQQKPGQPPKLLIYWASTRESGVPDRFSGSGSGTDFTLTISSLQAEDVAVYYCQQYYLYPLTFGGGTKVEIK			does not block binding

“Also recorded” adds a separate entry of the source.
